Data as given in publication PMC4336329 (PLoS ONE, 2015).
Among all 310,000 compounds or so, about 2,200 (0.71%) showed an effect of 50% or more. Effects have a minus sign here. This is one part of the list.

target: human ether-à-go-go-related gene (hERG) potassium channel (human, UniProt Q12809); experiment: primary screen, population patch clamp on CHO cells stably expressing hERG
Sequence (Q12809 whole entry, looked up): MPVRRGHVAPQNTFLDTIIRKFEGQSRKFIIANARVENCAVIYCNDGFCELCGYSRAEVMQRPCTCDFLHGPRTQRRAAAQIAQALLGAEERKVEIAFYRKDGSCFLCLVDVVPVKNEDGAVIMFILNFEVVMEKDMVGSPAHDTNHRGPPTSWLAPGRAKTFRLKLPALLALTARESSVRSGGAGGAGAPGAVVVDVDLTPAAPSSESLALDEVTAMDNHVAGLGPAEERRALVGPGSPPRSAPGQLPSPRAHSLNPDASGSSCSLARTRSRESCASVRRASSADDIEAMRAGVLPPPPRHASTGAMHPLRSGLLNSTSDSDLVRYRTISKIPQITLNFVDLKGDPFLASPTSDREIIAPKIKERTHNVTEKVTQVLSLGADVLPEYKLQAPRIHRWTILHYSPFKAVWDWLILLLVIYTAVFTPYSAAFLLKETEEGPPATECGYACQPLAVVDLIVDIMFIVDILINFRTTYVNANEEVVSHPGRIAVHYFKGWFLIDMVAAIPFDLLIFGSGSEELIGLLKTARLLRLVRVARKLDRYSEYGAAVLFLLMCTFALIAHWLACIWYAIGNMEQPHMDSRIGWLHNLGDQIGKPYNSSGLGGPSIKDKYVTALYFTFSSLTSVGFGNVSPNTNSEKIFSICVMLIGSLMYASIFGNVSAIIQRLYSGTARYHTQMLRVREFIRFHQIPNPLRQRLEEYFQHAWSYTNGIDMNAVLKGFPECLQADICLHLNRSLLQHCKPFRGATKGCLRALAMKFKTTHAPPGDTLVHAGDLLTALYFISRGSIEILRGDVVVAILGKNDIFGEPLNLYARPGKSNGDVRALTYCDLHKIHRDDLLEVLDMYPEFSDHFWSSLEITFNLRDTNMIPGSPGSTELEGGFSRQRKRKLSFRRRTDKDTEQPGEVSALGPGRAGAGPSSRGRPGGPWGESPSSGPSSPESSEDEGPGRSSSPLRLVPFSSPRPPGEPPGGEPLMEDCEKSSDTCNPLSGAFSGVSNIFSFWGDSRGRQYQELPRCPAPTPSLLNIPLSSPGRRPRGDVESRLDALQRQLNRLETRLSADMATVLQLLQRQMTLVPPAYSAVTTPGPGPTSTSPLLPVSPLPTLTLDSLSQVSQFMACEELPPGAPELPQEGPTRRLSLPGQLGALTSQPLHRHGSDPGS

Structure (SMILES) | hERG current change (%, negative = inhibition) at 1uM [%]
Cc1ccc(NC(=O)c2c(O)c3ccccc3n(C)c2=O)nc1 | -3.31
COc1ccc(Cl)cc1NC(=O)CNC(c1ccccc1)c1ccccc1 | 9.93
CC(C)(C)c1nnc(NS(C)(=O)=O)s1 | 8.87
CCN1C(=O)N[C@@H](c2ccco2)C(C(C)=O)=C1C | 17.6
CCOC(=O)c1c(SC)nc(SC)c2c1CCC2 | 11.4
O=C(NC1CCCCC1)C(c1cccs1)N(C(=O)Cc1c[nH]c2ccccc12)c1ccc(F)cc1 (stereo not shown) | 10.4
Cc1nccn1CCC1CCCCN1C(=O)CCc1nnc(-c2ccsc2)o1 (stereo not shown) | 12.6
COc1ccccc1CN1CC(C(=O)NCCn2ccc(C)n2)CCC1=O (stereo not shown) | 8.52
O=C(O)CC1SC(=Nc2ccccc2)N(c2ccccc2)C1=O (stereo not shown) | 12.1
COc1ccc(CN2CCNC(=O)C2CC(=O)O)c(OC)c1 (stereo not shown) | 10.5
O=S(=O)(c1ccc(=S)[nH]c1)N1CCCCC1 | 16.8
NC(=O)c1nsc(C(=O)N(CC(=O)NC2CCCC2)Cc2ccc3c(c2)OCO3)c1N | 7.32
CC(Sc1nnc(-c2ccc(O)cc2)o1)C(=O)Nc1cccc2ccccc12 (stereo not shown) | 7.58
CN(Cc1ccccc1)C(=O)c1cc(-c2ccc(Br)cc2)on1 | 8.41
O=C1c2ccccc2OCOc2ccccc21 | -0.41
CC(=O)Nc1cc2c(cc1NC(=O)Cn1nc(-c3ccccc3F)ccc1=O)OCCO2 | 1.56
CC(=O)Nc1cccc(-n2nnc(SCC(=O)Nc3ccc(F)c(Cl)c3)n2)c1 | 19.5
CCCn1c(SCC(=O)Nc2c(C)cccc2C)nnc1C(C)C | 5.06
COc1ccccc1CNC(=O)CSC(=S)N1CCCC1 | 3.59
C=CCc1cccc2cc(C(=O)NCc3ccc(C(=O)OCC)o3)c(=O)oc12 | -0.19
CCOc1cccc(NC(=O)c2ccc(S(=O)(=O)N(C)C)cc2)c1 | 7.76
O=C(NC1CC1)c1cc(=O)c2ccccc2o1 | 2.76
COc1ccc(C2CC(c3ccc(F)cc3)n3nc(NS(C)(=O)=O)nc3N2)cc1 (stereo not shown) | 15.8

Structure (SMILES) | hERG current change (%, negative = inhibition) at 1uM [%]
CCCc1c(C(=O)N/N=C/c2cccs2)nnn1-c1nonc1N | 13.5
Cc1cc(C(=O)COC(=O)C2=COCCO2)c(C)n1-c1ccc2c(c1)OCO2 | 8.48
COc1ccc(C(=O)NC(=S)NNC(=O)CNC(=O)C2CCCCC2)cc1 | 11.1
Cc1cc(C)cc(NC(=O)CN2CCC(NC(=O)c3cccc(F)c3)CC2)c1 | 4.29
Nc1ncnc2nc(SCCC(=O)O)[nH]c12 | 7.82
CCCCn1c(N)c(N(CCOC)C(=O)c2cnccn2)c(=O)[nH]c1=O | 15
Nc1c(C(=O)Nc2ccc(S(=O)(=O)N3CCCC3)cc2)sc2nc3ccc(OC(F)(F)F)cc3cc12 | 12.3
COc1ccccc1NS(=O)(=O)c1ccc(O)c(C(=O)OCC(=O)N2CCc3ccccc32)c1 | 1.42
COc1ccc(CC(=O)c2ccc(O)cc2O)cc1 | 6.47
CCOc1ccc(OCc2cccc(C(=O)N3CCCCCC3)c2)cc1 | -31.9
O=C(CSc1nc(-c2ccco2)cc(C(F)(F)F)n1)N1CCCc2ccccc21 | 3.01
Cc1sc(NC(=O)CCC(=O)O)c(C#N)c1C | 9.27
CCc1ncc(C)[nH]1 | 16.3
CCC(O)CC(C(=O)NNc1ccccc1)C(=O)NNc1ccccc1 (stereo not shown) | 11.5
Cl.O=C(NN1CCN(Cc2ccccc2)CC1)c1ccc(Cl)cc1 | -11.2
Cc1onc(-c2c(Cl)cccc2Cl)c1C(=O)N1CCCCC1 | 4.72
O=S(=O)(Nc1ccc(F)cc1)c1ccc(NS(=O)(=O)c2cccs2)cc1 | 10.1
COC(=O)c1ccc(CN2CCC(CO)(Cc3cccc(OC)c3)CC2)cc1 | -45.3
CC(C)(C)OC(=O)N1CCC(C(=O)N[C@H](C(=O)O)c2ccccc2)(c2ccccc2)CC1 | -1.74
CC(=O)c1ccc(N2CCN(S(=O)(=O)c3ccc4c(c3)CC(C)N4C(=O)C3CC3)CC2)cc1 (stereo not shown) | 17.4
O=C(N/N=C/c1ccc(-c2cccc([N+](=O)[O-])c2)o1)c1ccc([N+](=O)[O-])cc1 | -8.58
COc1ccc(OC)c(NC(=O)c2csc(Cl)c2OC)c1 | 16.7
Cc1ccc(NC(=O)C2CCC(CNC(=O)[C@@H]3Cc4ccccc4CN3)CC2)cc1 (stereo partly shown) | 17.8

Structure (SMILES) | hERG current change (%, negative = inhibition) at 1uM [%]
C/C(=N\O)c1ccc2[nH]ccc2c1 | 6.61
COc1ccc(NC(=O)COC(=O)/C=C/c2ccc(OC)c(S(=O)(=O)N3CCOCC3)c2)cc1 | -2.62
Cc1cc(C)n(C2CC(=O)N(c3cccc(Cl)c3)C2=O)n1 (stereo not shown) | 14.6
CC(O)(CS(=O)(=O)c1cccc(C(F)(F)F)c1)C(=O)Nc1ccc(C(F)(F)F)cc1 (stereo not shown) | -2.53
C=CCn1ccc(O)c(Cc2ccc(Cl)cc2)c1=O | 6.53
O=C(Cc1ccc(Br)cc1)N1CCN(c2ccc(F)cc2)CC1 | -4.48
Cc1ccc(/C=N/NC(=S)Nc2cccc(S(=O)(=O)N(C)C)c2)o1 | 6.74
Cc1nn(-c2ccccc2)c(C)c1/C=N/N1CCN(c2ccccc2)CC1 | -4.96
O=C(CNC(=O)c1cccs1)NCCN1CCN(Cc2ccccc2)CC1 | -4.3
c1ccc(C[C@H]2CNCCN2CCCCC2CCCCC2)cc1 | -1.24
O=C(O)C(O)(c1ccccc1)C(O)c1ccccc1 (stereo not shown) | 11.8
Cc1noc(C)c1S(=O)(=O)N1CCCC(C(=O)NCC2CCCO2)C1 (stereo not shown) | 8.15
COc1ccc2c(c1)SCCC2=O | 3.47
Cc1ccc(S(=O)(=O)CCSc2cccc(C(=O)Nc3ccccc3C(=O)O)c2)cc1 | 13.7
CCOC(=O)/C=C/c1ccc2oc3ccccc3c(=O)c2c1 | 16.5
COC(=O)C1=C(C)NC(=S)NC1c1ccco1 (stereo not shown) | 15.7
CCOc1ccc(NC(=O)CCNS(=O)(=O)c2ccc3c(c2)CCC(=O)N3)cc1 | 4.76
N#CC1=C(N)N(c2ccccc2Sc2ccccc2)C(=O)C1 | 4.35
CN1CCN(C(=O)CSc2ccc(Cl)cc2)CC1 | 19.4
CCN(C(=O)CN1C=NS(=O)(=O)c2ccccc21)c1ccccc1 | 11.8
CN(O)/C=C/C(=O)c1ccc(Br)cc1 | -4.85
O=C(CCCc1nc(-c2ccccc2)no1)NC1CCCCC1 | 14.6
O=C(CCNS(=O)(=O)c1ccc(Br)cc1)NC1CCCCC1 | 12.6

Structure (SMILES) | hERG current change (%, negative = inhibition) at 1uM [%]
Cc1ccc(Cn2c(=O)c3cccnc3n(CC(=O)Nc3cccc(C(F)(F)F)c3)c2=O)cc1 | 6.41
COC(=O)C1=C(C)Nc2nc(SCc3ccccc3)[nH]c(=O)c2C1c1cccs1 (stereo not shown) | 9.12
Cn1ccnc1SCC(=O)Nc1ccc(F)c([N+](=O)[O-])c1 | 8.93
O=C(CNS(=O)(=O)c1ccc(C(=O)N2CCCCC2)cc1)N1CCCCC1 | 11.1
CCN(CC)c1ccc(N2C(=O)/C(=C/c3cccnc3)SC2=S)cc1 | 12.4
NC(=O)c1ccccc1Br | 3.7
CCCOc1ccc2[nH]c(C(=O)N/N=C/c3cc(OC)c(OC)c(OC)c3)cc2c1 | 15.8
Cc1cccc(N/N=C(\C=N\N)C(=O)c2ccc(Br)cc2)c1 | 17.4
CCN(Cc1ccccc1)S(=O)(=O)c1cc(C(=O)O)ccc1OC | 15.7
S=C(NCc1ccccc1)Nc1cccc2ccccc12 | 7.97
COc1ccccc1-n1nc(C(=O)NCc2ccco2)c2ccccc2c1=O | 8.64
O=C(c1cnn(-c2ccc(Cl)cc2)c1)c1ccccc1O | -41.9
Cc1cc[n+](CC(=O)Nc2cc(C(F)(F)F)ccc2Cl)cc1.[Cl-] | 5.29
CCC(C)C(=O)Nc1nc2ccc(OC)cc2s1 (stereo not shown) | 9.62
O=C(OCC(=O)N1CCCC1=O)C1CCN(S(=O)(=O)c2c(Cl)cccc2Cl)CC1 | 4.94
CCc1c(C(=O)N/N=C/c2cccs2)nnn1-c1nonc1N | 11.4
CCOC(=O)Cc1csc(NC(=O)c2ccc(C)o2)n1 | 14.9
CCN1CCN(S(=O)(=O)c2ccc(Cl)c(C(=O)NC3CCC(C)CC3)c2)CC1 (stereo not shown) | 14.2
Cc1cc(C(=O)Cn2cncn2)c(C)n1CCc1ccc(F)cc1 | 3.78
O=C(OCC(=O)N1CCCC1)c1ccc(O)cc1 | 10.2
O=C(Nc1cccc(C(=O)N2CCOCC2)c1)c1cccnc1 | 16.1
CNS(=O)(=O)c1ccc(NCC2COc3ccccc3O2)c([N+](=O)[O-])c1 (stereo not shown) | 0.124
